Results reported in PubChem BioAssay AID1030 (National Center for Advancing Translational Sciences (NCATS), 2008).
Values joined by “and” are separate entries in the source; they are usually repeats but may differ in a detail not shown here. Identical values can stand only once. Screen size: about 220,000 compounds; about 16,000 (7.3%) were called active. Inconclusive results, whose numbers are uncertain, are shown with a selection of clear calls. The call rests on the fitted dose curve; in most records, active means well fitted inhibition curve with a large enough effect (not every such curve was filed as active); inconclusive means small, poorly fitted or top-dose-only effect, or another doubt; inactive means no such curve, though single readings can be large or run the other way. No potency is given beside an inconclusive call; the fits are too rough.

target: Aldehyde dehydrogenase 1A1 (Homo sapiens) (UniProt P00352); assay: qHTS Assay for Inhibitors of Aldehyde Dehydrogenase 1 (ALDH1A1); settings: Purified ALDH1A1, NADH fluorescence, propionaldehyde substrate; series mostly up to 75.3 µM; activity, negative = inhibition: at the top concentration;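 on activity, negative = inhibition: plate controls were no enzyme wells and a reference inhibitor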
Chain of UniProt P00352 (P00352 whole entry, looked up): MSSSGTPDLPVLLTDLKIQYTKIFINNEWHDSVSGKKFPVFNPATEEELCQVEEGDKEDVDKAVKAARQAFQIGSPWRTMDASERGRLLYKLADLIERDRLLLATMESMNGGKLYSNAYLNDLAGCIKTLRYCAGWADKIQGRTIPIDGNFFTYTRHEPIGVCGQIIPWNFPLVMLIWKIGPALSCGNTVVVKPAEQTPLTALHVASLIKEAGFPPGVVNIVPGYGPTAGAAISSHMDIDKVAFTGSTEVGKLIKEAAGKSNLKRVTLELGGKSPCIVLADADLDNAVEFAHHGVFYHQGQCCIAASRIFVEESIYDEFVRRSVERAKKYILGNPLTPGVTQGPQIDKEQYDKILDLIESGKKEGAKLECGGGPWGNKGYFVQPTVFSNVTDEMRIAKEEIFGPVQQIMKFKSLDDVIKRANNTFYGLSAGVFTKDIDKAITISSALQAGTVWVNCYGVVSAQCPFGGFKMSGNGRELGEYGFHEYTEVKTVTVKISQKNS
Potency means the concentration at half of the fitted maximal effect; tags describe the fitted curve by direction and shape.

SMILES	Potency	activity, negative = inhibition
CN(C)C(=O)c1cccn(Cc2cccc(C(F)(F)F)c2)c1=O	inconclusive [inhibitor, single point]	
Cc1ccc(OC2C(O)COC2/C=C/C#Cc2ccc(C(C)(C)C)cc2)cc1 (stereo not given)		inactive: 12.2% [at 13.5 µM] and inactive: 1.35% [at 13.5 µM]
CNC(=O)c1cccnc1Nc1cccc(C(F)(F)F)c1		inactive: 2.23%
O=C(Nc1ccc(N2CCN(C(=O)c3ccco3)CC2)c(Cl)c1)c1cc2ccccc2o1	inconclusive [inhibitor, single point]	
Cc1ccccc1CSc1nnc(C)c(=O)[nH]1	inconclusive [inhibitor, single point]	
COC(=O)C1=C(C)N(Cc2ccco2)C(=O)C1	inconclusive [inhibitor, single point]	
N#Cc1c(NC(=O)Cn2cnc3ccccc3c2=O)oc(-c2ccccc2)c1-c1ccccc1	inconclusive [inhibitor, partial curve]	
CCS(=O)(=O)Nc1cccc(C2=NN(C(C)=O)C(c3cccs3)C2)c1 (stereo not given)	inconclusive [inhibitor, single point]	
COCCn1c(=O)c(-c2cccs2)nc2cnc(N3CCN(C)CC3)nc21	inconclusive [inhibitor, partial curve]	
OCC1(Cc2ccccc2)CCCN(Cc2ccc(-c3ccco3)cc2)C1 (stereo not given)	active: 25.1 µM	
O=C1NCC(CN(c2ccccc2)c2ccccc2)O1 (stereo not given)	inconclusive [inhibitor, partial curve]	
COc1ccc(CCN(C)S(=O)(=O)c2ccc(Cl)nc2)cc1OC	inconclusive [inhibitor, single point]	
Cc1ccc(C(=O)Nc2c(C#N)c(C)c(C)n2Cc2ccccc2)cc1	inconclusive [inhibitor, partial curve, poor fit]	
O=C(CSc1ccccc1)N1CCN(c2ccccn2)CC1	inconclusive [inhibitor, single point]	
COCc1nnc(NC(=O)CCc2ccccc2)s1		inactive: -10.6%
O=S1(=O)C=CC(Sc2nc3ccccc3[nH]2)C1 (stereo not given)	inconclusive [inhibitor, single point]	
CCCSc1nc2c(cnn2-c2ccc(C)c(C)c2)c(=O)[nH]1		inactive: 4.24%
CCOC(=O)/C(C(N)=NCCO)=C(/O)c1ccccc1	inconclusive [inhibitor, single point]	
COc1cccc(C2CC(c3ccccc3Cl)Nc3nc(N)nn32)c1 (stereo not given)		inactive: 7.88%
CCN(CC)C1=CC2=CC(=C(C#N)C#N)CCC2CC1 (stereo not given)	active: 2.24 µM	
CC1CCCC(C)N1NC(=S)Nc1ccc(OC(F)F)cc1 (stereo not given)	inconclusive [inhibitor, single point]	
CC(C)CC1c2[nH]c3ccccc3c2CCN1C(=O)CCC(=O)N(C)C (stereo not given)		inactive: 5.15%
N#Cc1ccc(CN2CCC3(CCNCC3)CC2)cc1		inactive: -6.2%
COc1cc2c(C(=O)NCc3ccc4c(c3)OCO4)cn(CC(C)C)c(=O)c2cc1OC	active: 0.141 µM	

SMILES	Potency	activity, negative = inhibition
COc1ccc(-c2[nH]c(-c3cc(OC)c4c(c3)OCO4)nc2-c2ccccc2)cc1	inconclusive [inhibitor, partial curve]	
CSC1=N/C(=C\c2ccc(C)cc2)C(=O)S1	inconclusive [inhibitor, single point]	
O=C1c2cccc(OCc3ccc(F)cc3)c2CCN1Cc1ccccc1		inactive: -8.06%
CCSc1nnc(NC(=O)c2ccc(Br)s2)s1	inconclusive [inhibitor, single point]	
O=C1CCCc2c1[nH]c1ccc(CN3CCCCC3)cc21	inconclusive [inhibitor, single point]	
CCn1c2ccccc2c2cc(/C=N/n3c(-c4cc(C)[nH]n4)n[nH]c3=S)ccc21	active: 12.6 µM	
COc1cc(NC(=O)CSc2nc3cc(C)ccc3cc2C)c(C(=O)O)cc1OC	inconclusive [inhibitor, single point]	
O=C(NNc1nc2ccccc2s1)c1ccc(F)cc1		inactive: -11.7%
O=C(COc1cccc(NC(=O)c2ccco2)c1)c1ccccc1	inconclusive [inhibitor, single point]	
CCO/N=C/C1=C(O)C(C(=O)OC)C(C)(C)CC1=O (stereo not given)	inconclusive [inhibitor, single point]	
CC(=O)Cc1nsc(NC(=O)C2Cc3ccccc3C(=O)O2)n1 (stereo not given)	inconclusive [inhibitor, partial curve]	
N#C/C(=C(/O)COc1ccc(Cl)cc1)c1nc2ccccc2s1	inconclusive [inhibitor, single point]	
Cc1cc(=O)oc2cc(OCC(=O)OCC(=O)N3CCc4ccccc43)ccc12	inconclusive [inhibitor, partial curve]	
O=C(Nc1ccc2c(c1)OCCO2)c1ccc(NC(=O)C2CCCO2)cc1 (stereo not given)	inconclusive [inhibitor, partial curve]	
CCc1ccc2c(c1)C1(NN=C(c3ccc(C)cc3)S1)C(=O)N2 (stereo not given)	inconclusive [inhibitor, single point]	
CCc1cc2c(=O)c(-c3nc4ccccc4n3C)c(C)oc2c(CN2CCN(C)CC2)c1O	inconclusive [inhibitor, single point]	
COc1ccc(CNC(=O)C2CCN(S(=O)(=O)N3CCOCC3)CC2)cc1	inconclusive [inhibitor, partial curve]	
COc1ccc(-n2c(C)cc(/C=C3/SC(=S)N(C)C3=O)c2C)cc1	active: 1 µM	
CCOCc1cc(C)[nH]c(=O)c1C#N	inconclusive [inhibitor, partial curve]	
NCCCC(N)CC(=O)NCC1NC(=O)C(CO)NC(=O)C(N)CNC(=O)C(C2CCN=C(N)N2)NC(=O)/C(=C\NC(N)=O)NC1=O (stereo not given)		inactive: 1.25%
COc1ccc(CC(=O)Nc2cccc(-c3nnc(-c4cccc(C)c4)o3)c2)cc1OC	inconclusive [inhibitor, single point]	
COc1ccc(/C=N/c2oc(C)c(C)c2C#N)c(OC)c1	active: 12.6 µM	
CCCc1cc(=O)[nH]c(SCC(=O)Nc2cc(C)on2)n1		inactive: 0.356%
COc1ccc(Cn2ccnc2CO)cc1[N+](=O)[O-]	active: 6.31 µM	

SMILES	Potency	activity, negative = inhibition
CC(=O)c1c(O)c2ccccc2n(C)c1=O	inconclusive [inhibitor, single point]	
COc1ccc(-c2nn(-c3ccccc3)cc2/C=N/NC(=O)c2cccc(S(=O)(=O)Nc3ccccc3Cl)c2)cc1	inconclusive [inhibitor, single point]	
O=C(O)c1ccccc1NC(=S)NC(=O)c1sc2ccccc2c1Cl	inconclusive [inhibitor, partial curve]	
Cc1ccccc1Oc1nc2ccccc2n2cnnc12	inconclusive [inhibitor, partial curve]	
O=c1c2cc([N+](=O)[O-])ccc2nc(CN2CCN(c3ccccn3)CC2)n1-c1ccccc1F	active: 14.1 µM	
Cn1cnnc1SCC(=O)Nc1ccc(OCc2ccccc2)cc1	inconclusive [inhibitor, single point]	
COc1ccc2c(C)cc(N3CCN(c4ccc(F)cc4)CC3)nc2c1	inconclusive [inhibitor, single point]	
CCCCCCC1C(C#N)=C(N)OC2=C1C(=O)CCC2 (stereo not given)	inconclusive [inhibitor, single point]	
CCn1cc(C(=O)O)c(=O)c2cnc(N3CCCC3)nc21	inactive	
CCOc1cc(/C=C2/C(=O)ON=C2C)ccc1OCc1ccc(F)cc1	inconclusive [inhibitor, single point]	
O=C(O)Cn1cnc2sc3c(c2c1=O)CCCC3	inconclusive [inhibitor, single point]	
Cc1ccc(/C=N/c2sc3c(c2C#N)CCC3)s1	active: 25.1 µM	
Cc1nn(C)c(C)c1NC(=O)CCSc1nc(-c2ccco2)cc(C(F)(F)F)n1	inconclusive [inhibitor, single point]	
CCOC(=O)CC1C(=O)NCCN1C(=O)c1sc2ccccc2c1Cl (stereo not given)	inconclusive [inhibitor, partial curve]	
Cc1ccc(Cl)cc1Nc1nc(-c2sc(NC(=O)c3ccco3)nc2C)cs1	inconclusive [inhibitor, single point]	
CCc1ccc(/C=C2\SC(=S)N(CCC(=O)Nc3cc(C)on3)C2=O)cc1	inconclusive [inhibitor, single point]	
COc1cc(/C=N/NC(=O)C23CC4CC(CC(C4)C2)C3)cc(Br)c1O	inconclusive [inhibitor, single point]	
O=C(CSc1ncccc1C(=O)O)c1ccccc1	inconclusive [inhibitor, single point]	
COCCNC(=O)CSc1nnc(CCCN2C(=O)c3cccc4cccc(c34)C2=O)n1-c1ccccc1		inactive: -13.5%
Cc1cc(C)n(S(=O)(=O)c2ccc3ccccc3c2)n1	inconclusive [inhibitor, single point]	
CCOC(=O)c1c(NC(=O)COC(=O)c2cc(OC)c(OC)cc2[N+](=O)[O-])sc(C)c1C		inactive: -5.38%
CC(=O)Nc1cccc(C(=O)N2CCN(Cc3ccccc3)CC2)c1	inconclusive [inhibitor, single point]	
